Results as given in PubChem BioAssay (NCATS).
The shares of active, inactive and inconclusive entries below differ from those in the screen. Potencies of inconclusive entries are doubtful fits and often do not repeat. Activity calls are given as the source filed them. Calls follow the shape of the dose curve; as a rule, active = well fitted cell-killing curve with a large enough effect; inconclusive = small, poorly fitted or top-dose-only effect, or effect the other way; inactive = flat fitted curve, though single readings scatter.

The molecules below were run on SKOV3 (assay: Primary qHTS to identify gynecologic anti-cancer compounds using libraries of approved drugs and bioactive compounds (AID 1345084; also: nearly all actives have a fitted effect of over 55% in size)). Settings: Gynecologic cancer cell panel viability, ATPlite luminescence, 48 h; series mostly up to 57.5 µM; activity change, negative = cytotoxicity: at the top concentration.
How it was run: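 ATP-based viability (ATPlite), 1,000 cells/well, 16 h pre-incubation, 48 h compound at 37 C, 5% CO2, 15 min RT before read.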
% is scaled to controls: 0 for no effect and ±100 for the full control effect; potency is read from the fitted curve at half-maximal effect; tags tell the direction and shape of the fitted curve.

| Compound | Potency | activity change, negative = cytotoxicity |
| --- | --- | --- |
| Cc1occc1C(=O)n1ccnc1 | inconclusive: 39.8 µM [rising, single point] | – |
| C/C(=C/CO)CC[C@@H]1[C@@]2(C)CCC[C@](C)(C(=O)O)C2CC[C@@]1(C)O (stereo partly drawn) | – | inactive: 0% [at 38.5 µM] |
| CC/C=C/CC1=C(CCCCCCCC(=O)O)CCC1=O | inconclusive: 2.82 µM [rising, partial curve, poor fit] | – |
